Results: PMC4336329 (PLoS ONE, 2015)
Among all 310,000 compounds or so, about 14,000 (4.5%) showed an effect of 50% or more. Effects have a minus sign here. The list shows a part of the results.

biological target: human ether-à-go-go-related gene (hERG) potassium channel (human, UniProt Q12809); assay: primary screen, population patch clamp on CHO cells stably expressing hERG
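Further: peak tail current of the secondary pulse compared with the same well before compound.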

Chain of human ether-à-go-go-related gene (hERG) potassium channel (Q12809 whole entry, looked up): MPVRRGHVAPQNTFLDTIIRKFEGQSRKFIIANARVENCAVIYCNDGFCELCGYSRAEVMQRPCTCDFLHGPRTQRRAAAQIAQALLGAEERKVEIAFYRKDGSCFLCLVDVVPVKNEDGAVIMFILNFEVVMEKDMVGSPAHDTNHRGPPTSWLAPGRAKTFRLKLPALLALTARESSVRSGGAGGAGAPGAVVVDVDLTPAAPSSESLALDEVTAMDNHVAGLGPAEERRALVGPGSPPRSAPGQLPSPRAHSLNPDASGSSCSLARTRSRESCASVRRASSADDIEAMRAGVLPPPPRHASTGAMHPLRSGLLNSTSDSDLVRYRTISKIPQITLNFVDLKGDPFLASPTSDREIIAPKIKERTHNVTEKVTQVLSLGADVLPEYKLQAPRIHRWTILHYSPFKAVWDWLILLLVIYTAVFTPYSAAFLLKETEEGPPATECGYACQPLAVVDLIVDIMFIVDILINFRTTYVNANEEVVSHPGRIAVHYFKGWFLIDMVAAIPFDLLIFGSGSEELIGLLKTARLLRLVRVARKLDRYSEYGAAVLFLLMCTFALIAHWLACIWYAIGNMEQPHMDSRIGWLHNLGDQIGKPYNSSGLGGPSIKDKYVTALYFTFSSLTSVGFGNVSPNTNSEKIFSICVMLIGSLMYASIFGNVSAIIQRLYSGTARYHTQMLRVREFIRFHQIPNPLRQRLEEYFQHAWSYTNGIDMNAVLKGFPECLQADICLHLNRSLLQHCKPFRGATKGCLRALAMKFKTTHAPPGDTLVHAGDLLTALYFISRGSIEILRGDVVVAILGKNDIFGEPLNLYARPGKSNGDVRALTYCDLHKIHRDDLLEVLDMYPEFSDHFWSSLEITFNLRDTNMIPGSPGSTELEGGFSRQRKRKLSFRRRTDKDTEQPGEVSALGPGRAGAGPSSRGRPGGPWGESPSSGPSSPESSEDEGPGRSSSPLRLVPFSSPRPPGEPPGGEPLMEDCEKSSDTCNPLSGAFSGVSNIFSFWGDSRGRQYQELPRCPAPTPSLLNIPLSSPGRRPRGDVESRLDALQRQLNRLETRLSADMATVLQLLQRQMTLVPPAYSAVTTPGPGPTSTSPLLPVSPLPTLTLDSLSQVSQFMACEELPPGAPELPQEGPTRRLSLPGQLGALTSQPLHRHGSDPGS

Row | SMILES | hERG current change (%, negative = inhibition) at 10uM [%]
1 | CC(C)Nc1nc(NC(C)C)nc(SCC(N)=O)n1 | 1.67
2 | CCOC(=O)C1=C2NC(=O)c3ccccc3N2C(=O)C1 | -0.753
3 | O=C(NCc1ccc2c(c1)OCO2)C1CC(=O)N(c2ccc(O)cc2)C1 (stereo not drawn) | -11.5
4 | C/C(=C\c1ccccc1)CN1CCC(C(=O)N2CCCCC2)CC1.O=C(O)C(=O)O | -47.5
5 | CCC(CC)NC(=O)c1cccc(Oc2ccccc2)c1 | -11.6
6 | CC(NC(=O)c1ccc(F)cc1)C1CC2CCC1C2 (stereo not drawn) | -0.921
7 | COC(=O)c1sccc1S(=O)(=O)Nc1ccc(N2CCCCC2)cc1 | 17.2
8 | CCOC(=O)C1(Cc2ccccc2C)CCCN(Cc2cc(OC)c(O)c(OC)c2)C1 (stereo not drawn) | -39.7
9 | COc1ccc(-n2nnc3c(SC(C(C)=O)C(=O)N(C)C)ncnc32)cc1 (stereo not drawn) | -12.8
10 | CN1CCC(Oc2ccc(Sc3ccccc3)cc2)CC1.Cl | -67
11 | COc1ccc(CNS(=O)(=O)c2ccc3c(c2)CC(C)N3C(=O)C2CC2)cc1 (stereo not drawn) | 22.1
12 | Cc1ccc(S(=O)(=O)Nc2nccs2)cc1[N+](=O)[O-] | 20.7
13 | CCCN1CCN(CCCNC(=O)Cn2nc(-c3ccc(Cl)cc3)ccc2=O)CC1 | -50.8
14 | O=C(CN1CCC(n2nnc3cc(F)ccc32)CC1)N1CCc2ccccc2C1 | -58.1
15 | Cn1c(=O)n(C)c2cc(NC(=O)COc3ccc(F)cc3F)ccc21 | -13.6
16 | CC(=O)NO | 12.3
17 | O=C(O)c1ccc(-c2ccc(Cl)cc2Cl)o1 | -3.71
18 | Cc1cc(-c2ccc(/C=N/n3cnnc3)o2)c([N+](=O)[O-])cc1C | -9.52
19 | O=C(O)c1ccccc1-n1ncc2c1/C(=C/c1ccc(Cl)cc1)CC2 | 14.9
20 | Cc1cccc(C)c1OC1(c2ccccc2)OC(=O)c2ccccc21 (stereo not drawn) | 10.9
21 | O=C(c1ccco1)c1cn(Cc2ccccc2)c2ccccc12 | -6.75
22 | O=S(=O)(Nc1ncnc2sc3c(c12)CCC3)c1ccc(Cl)s1 | 12
23 | CN1CCC(N(C)S(=O)(=O)c2ccc(NC(=O)COc3ccc(F)cc3)cc2)CC1 | 0.996

Row | SMILES | hERG current change (%, negative = inhibition) at 10uM [%]
24 | Cc1ccc(S(=O)(=O)Nc2nc(C)cc(N/N=C/c3ccc(O)cc3)n2)cc1 | 16.1
25 | Cc1ccc(C2(c3ccc(C)cc3)CC2C(=O)NC(C)C)cc1 (stereo not drawn) | 12.4
26 | O=C(COc1ncnc2ccccc12)Nc1cc(S(=O)(=O)N2CCOCC2)ccc1Cl | 6.64
27 | CCn1c(SCC(=O)NC2CCCCC2)nnc1-c1cccs1 | 4.45
28 | Cc1ccc(C(=O)N2c3ccccc3NC(=O)C2C)cc1 (stereo not drawn) | 0.849
29 | Cc1cc(=O)n2[nH]nnc2n1 | -14.4
30 | CC1CCC2(CC1)NC(=O)N(CC(=O)N1CCN(S(=O)(=O)c3ccccc3)CC1)C2=O (stereo not drawn) | -19.3
31 | CN1C(=O)C(C)(C)N(C(=O)c2cccc([N+](=O)[O-])c2)c2ccccc21 | -2.83
32 | COc1ccc(S(=O)(=O)N2CCOC2CNC(=O)C(=O)NCCc2ccccc2)cc1 (stereo not drawn) | -18.3
33 | O=C(CCCn1c(=O)c2ccccc2n(Cc2cccc(F)c2)c1=O)NC1CCN(Cc2ccccc2)CC1 | -68.6
34 | CN(Cc1nc2c(s1)CCCC2)C(=O)CCc1nnc(-c2ccc3c(c2)OCO3)o1 | 8.42
35 | c1cncc(-c2noc(-c3ccc4ccccc4c3)n2)c1 | 19.3
36 | c1ccc2c(SCc3cn4ccccc4n3)nncc2c1 | -34.4
37 | Cc1c(C(=O)OCCOC(C)C)[nH]c2c1C(=O)CC(c1ccco1)C2 (stereo not drawn) | -18.3
38 | Cc1cccc(C)c1N1CCN(C(=O)N2CCCCC2)CC1 | 15.1
39 | COC(=O)c1cn(NC(=O)COc2ccc(Cl)cc2)c(=O)c2ccccc12 | 1.74
40 | COC(=O)c1cccc(NC(=O)CSc2nnc(COc3cccc(C)c3)n2C)c1 | -1.42
41 | CCOC(=O)c1c(C)[nH]c(C)c1C(=O)CSc1nc2ccccc2c(=O)n1-c1ccc(C)cc1 | 11.9
42 | S=C1NC2(CCCCC2)Cc2ccccc21 | 12.4
43 | CC(=O)c1cc2c(cc1N(C(=O)Cn1nnc3ccccc31)C(C(=O)NCCC(C)C)c1cccnc1)OCO2 (stereo not drawn) | 8.92
44 | NS(=O)(=O)c1ccc(Nc2nc3ccccc3nc2NS(=O)(=O)c2cccc([N+](=O)[O-])c2)cc1 | 10.8
45 | CCN1CC2C3CCC(C)(O3)C2C1 (stereo not drawn) | -73.1
46 | Cn1c(=O)[nH]c2ccc([N+](=O)[O-])nc21 | 9.62

Row | SMILES | hERG current change (%, negative = inhibition) at 10uM [%]
47 | COc1ccc(N/C=C/C(=O)c2ccc(OC)c(OC)c2)cc1 | 17.5
48 | CCCC(=Nc1ccccc1OC)C1=C(O)CC(c2ccccc2)CC1=O (stereo not drawn) | 0.706
49 | CN(C(=O)CSc1ncnc2scc(-c3ccccc3)c12)C1CCS(=O)(=O)C1 (stereo not drawn) | -7.59
50 | O=C(NCc1ccncc1)Nc1ccccc1F | 14.6
51 | Cc1ccc(C(=O)Nc2ccc3[nH]c(=O)[nH]c3c2)c(C)c1 | 45.6
52 | C=CCN(CC(=O)NCc1ccc(F)cc1)C(=O)c1csnn1 | -18.2
53 | Clc1ccc(CNc2ncccn2)cc1 | 13.5
54 | CCOC(=O)Cn1cc(C=O)c2ccccc21 | -2.22
55 | CCOC(=O)c1ccc(NC(=O)Oc2ccccc2)cc1 | -7.53
56 | CCc1cccc(NC(=O)CSCc2nc3sc(C)c(C)c3c(=O)[nH]2)c1 | 23.1
57 | Cc1cnc(NC(=O)c2cc3ccccc3o2)s1 | 19.9
58 | CC(Nc1n[nH]c(=O)[nH]c1=O)C(=O)N/N=C/c1cccs1 (stereo not drawn) | 20.4
59 | O=C(CCN1C(=O)c2ccccc2C1=O)C1=NN[C@@H]2C(=O)N(c3cccc(F)c3)C(=O)[C@H]12 | 22.4
60 | Nc1ccc(C23CC4CC(CC(O)(C4)C2)C3)cc1 | 6.83
61 | CC(c1c(O)c2ccccc2[nH]c1=O)C1(C)CCC(O)C(C)(C)O1 (stereo not drawn) | -2.48
62 | CCC(=O)N1CCc2cc(S(=O)(=O)CCC(=O)NCc3cccs3)ccc21 | -2.37
63 | COc1ccc(Br)cc1CN1CCSCC1 | 14.4
64 | CCn1ccnc1CN(C)Cc1nc(Cc2cccc(C(F)(F)F)c2)no1 | -60.8
65 | O=[N+]([O-])/C=C/c1cn(Cc2ccccc2)c2ccccc12 | 3.66
66 | Cc1ccc(N=CC2=C(O)CC(c3ccco3)CC2=O)cc1 (stereo not drawn) | -7.57
67 | Cc1ccc(-c2nc(SCC(=O)NCCN3C(=O)CSC3=O)[nH]c2-c2ccc(C)cc2)cc1 | -9.15
68 | O=C(CC1CCCCC1)NC1CCCC1 | -3.75
69 | CC(=O)NC12CC3CC(C1)CC(C(=O)N(C)CC(=O)Nc1ccc(F)c(F)c1F)(C3)C2 | -17.7

Row | SMILES | hERG current change (%, negative = inhibition) at 10uM [%]
70 | Cc1ccc(NC(=O)c2cc(-c3cccc(O)c3)on2)cc1C | 5.27
71 | CC(=O)C1C(c2ccccc2OC(F)F)NC(=O)NC1(O)C(F)(F)F (stereo not drawn) | 10.2
72 | CCN(CC)c1ccc(NC(=O)c2ccc(=O)[nH]c2)cc1S(=O)(=O)Nc1ccc(OC)cc1 | -7.22
73 | O=C(O)c1cc2c([nH]c1=O)CCCC2 | 14.1
74 | CCCCCN(C(=O)CCC(=O)OCc1cc(C(C)=O)ccc1OC)c1c(N)n(CCCC)c(=O)[nH]c1=O | -35.3
75 | CC(C(=O)NCc1ccccc1)N1CCN(c2ccc(F)cc2)CC1 (stereo not drawn) | -18.9
76 | COc1c(Cl)cc(Cl)cc1C(=O)Nc1ccc(NC(C)=O)cc1 | 3.33
77 | Cc1cccc(N2CCN(C(=O)CCn3c(=O)[nH]c4ccsc4c3=O)CC2C)c1 (stereo not drawn) | 21.5
78 | COc1cccc(N2CCN(C3CC(=O)N(c4ccc(Cl)cc4)C3=O)CC2)c1 (stereo not drawn) | -12.3
79 | CCOC(=O)c1ccccc1-n1c(C)cc(C2N=C(N)Nc3nc4ccccc4n32)c1C (stereo not drawn) | 4.23
80 | CNC(=O)Cn1nc(-c2ccc(C)cc2)c2ccccc2c1=O | -3.12
81 | Cc1cc(C)n(CC(O)COc2ccc(F)cc2)n1 (stereo not drawn) | 9.76
82 | O=C1CC2OCC=C3CN4CCC56c7cc([N+](=O)[O-])ccc7N1C5C2C3CC46 (stereo not drawn) | -22.4
83 | C/C(=C\c1ccccc1)C(=O)NCCN1CCOCC1 | 6.31
84 | Cc1ccc(CC(=O)Nc2ccc(S(=O)(=O)Nc3nccc(C)n3)cc2)cc1 | 1.2
85 | CCc1ccc(C2C(C#N)=C(N)N(N3CCOCC3)C3=C2C(=O)CC(C)(C)C3)s1 (stereo not drawn) | -15.8
86 | CCCCN(Cc1ccco1)S(=O)(=O)c1c[nH]c(C(=O)OC)c1 | -4.24
87 | COc1ccc(-c2n[nH]c(=S)n2-c2ccc(Br)cc2)cc1OC | 20.3
88 | COc1ccc(NC2CCCN(C(=O)c3ccc4[nH]c(C)c(C)c4c3)C2)cc1 (stereo not drawn) | 9.05
89 | Cc1ccc(CNC(=O)CSCc2ccccc2F)cc1 | -2.9
90 | CCCCOc1ccc(-c2ncc(C(=O)OCC)c(N)n2)cc1 | 7.2
